The list shows a part of the results. These are noisy estimates, calculated here from bound and input reads.
target: T1, Pho4 (S. cerevisiae) (UniProt P07270); assay: relative binding free energy (BET-seq); higher = weaker binding; conditions: reference: library average
T1 sequence: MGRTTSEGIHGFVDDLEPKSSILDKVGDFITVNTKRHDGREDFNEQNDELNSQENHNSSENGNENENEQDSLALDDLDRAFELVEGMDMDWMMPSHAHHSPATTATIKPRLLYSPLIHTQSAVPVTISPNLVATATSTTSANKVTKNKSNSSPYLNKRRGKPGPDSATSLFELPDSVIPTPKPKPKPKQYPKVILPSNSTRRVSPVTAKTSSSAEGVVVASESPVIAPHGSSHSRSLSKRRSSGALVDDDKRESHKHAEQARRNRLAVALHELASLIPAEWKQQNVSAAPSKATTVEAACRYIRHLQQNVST

Sequence | relative binding free energy [kcal/mol]
TTCATCACGTGAGGGA | 0.31
ATGGGCACGTGGTTCG | -0.16
TTTTTCACGTGAATTC | 0.38
ATGTTCACGTGCTTAA | 0.12
GTTCGCACGTGTGTGC | -0.08
TATCGCACGTGAATTT | 0.32
TGTTGCACGTGATGTA | 0.16
GTTTTCACGTGTTGAG | 0.22
AGTTGCACGTGCGATG | -0.15
TGCGACACGTGTTGGA | 0.1
TTGCGCACGTGGCTGT | -0.26
TGGGGCACGTGTGCAA | -0.03
AAGGACACGTGTGAGG | 0.13
GATGACACGTGGGGAT | 0
GAAAGCACGTGAGGTT | 0.3
GCAATCACGTGTGGTG | 0.26
ACGAACACGTGTTGGG | 0.06
TGAGTCACGTGGGGGT | 0
TAGGACACGTGCGATT | 0.14
GGGGGCACGTGCAGAT | -0.1
CGAGGCACGTGTGTGG | -0.04
AACATCACGTGGTGGT | -0.02
TAGGGCACGTGCATGT | -0.11
GTGCACACGTGTATGT | 0.02
CAGCACACGTGTGGTA | 0.22
CGGTACACGTGGATTG | -0.01

Sequence | relative binding free energy [kcal/mol]
AGTTGCACGTGGGCGA | -0.06
AACGGCACGTGAGGGG | 0.04
GGGCGCACGTGTGATG | 0.05
GGATACACGTGTGTGT | 0.06
AAAGGCACGTGCTTGG | -0.11
AATATCACGTGTTAGG | 0.19
TGGAGCACGTGTAAGT | -0.06
AGAGTCACGTGAGAGG | 0.34
GTATTCACGTGGCATG | 0.27
CGTTTCACGTGTAGAG | 0.21
TATGGCACGTGTACAT | 0.03
TTATACACGTGATAGT | 0.14
GGTGGCACGTGGCAGC | -0.24
AAGTCCACGTGTGGTT | 0.05
CGTTGCACGTGTTGCG | 0.03
CGTTTCACGTGACGTG | 0.2
TAAATCACGTGTTGTA | -0.02
AAAGTCACGTGGAGAG | 0.08
CTGTTCACGTGAAGGG | 0.52
ACTAGCACGTGGAGGG | -0.06
TGTGACACGTGGGGAT | -0.12
GGGTGCACGTGTTTTT | 0.15
GTCGGCACGTGGGGAG | -0.26
ATCTGCACGTGCGTGG | -0.15
TTGATCACGTGGACTG | 0.05
GTCTTCACGTGATATT | 0.36

Sequence | relative binding free energy [kcal/mol]
AGGGACACGTGAATTG | 0.28
GTGGGCACGTGGTACC | -0.08
TAGTTCACGTGGGGCG | 0.16
AACTACACGTGGGGGT | 0
TTTAACACGTGTAGTA | -0.05
ATTTCCACGTGGGGTT | -0.07
TTCTTCACGTGGGTGT | 0.18
ACGTGCACGTGTGCTG | -0.09
GCGAGCACGTGGGTGC | -0.16
TGACTCACGTGAAGTG | 0.34
TTTGCCACGTGGCGTA | -0.07
GTACTCACGTGGTGGG | 0.06
CTTGGCACGTGGTATA | -0.13
TGCTACACGTGGTAGG | 0.1
ATCTTCACGTGGGGTG | -0.02
AGTTGCACGTGGTAGA | -0.07
AGGTACACGTGGAAGG | 0.06
TTTATCACGTGGGAGC | 0.14
GGGAGCACGTGTCTGG | -0.1
GATGACACGTGGAAGT | 0.21
TTAGACACGTGGGTGT | -0.13
GATTTCACGTGGCTGT | 0.29
CGATGCACGTGGTCAG | -0.01
ACGGACACGTGGAGGT | 0.05
TTTTACACGTGGGGCA | 0.04
TTTTTCACGTGTTCTC | 0.22

Sequence | relative binding free energy [kcal/mol]
TGTTTCACGTGTTTCC | 0.31
TTGGTCACGTGAGTAC | 0.19
GGTGACACGTGGGCCG | 0.07
GGAAACACGTGAAGGT | 0.2
TTGCTCACGTGGTGTC | 0.2
TTGTGCACGTGCATGA | -0.15
TTCTACACGTGTGTGG | 0.05
AGTATCACGTGAGGTG | 0.29
TATTACACGTGTTATA | 0.01
AGAGTCACGTGCATGG | 0.03
CTAGGCACGTGGGGAC | -0.19
TGTAGCACGTGCGTGT | -0.24
TATTTCACGTGTTGGT | 0.3
GACTGCACGTGTTGTG | 0.11
GGTGTCACGTGAAAAG | 0.23
CTTTTCACGTGAAGGA | 0.44
TATATCACGTGATTCG | 0.27
TGGATCACGTGTCCGT | 0.19
ACGTTCACGTGGGGTG | 0.07
AAATTCACGTGTTATT | 0.24
TTTTACACGTGTGAAG | 0.27
GTTTTCACGTGAGGAA | 0.31
AGTGTCACGTGGGGTT | -0.12
AAAATCACGTGTATTT | 0.05
TGAGCCACGTGGAGTG | -0.03
TAAGGCACGTGTGTCG | 0.06

Sequence | relative binding free energy [kcal/mol]
GGTTCCACGTGGTTTG | -0.04
GGTGGCACGTGTCTGT | -0.05
CGGTTCACGTGTCGTG | 0.21
TTTGTCACGTGCTATT | 0.06
GTCCGCACGTGAGTGG | 0.08
GTTTTCACGTGTTTTT | 0.4
GGCTTCACGTGAGATG | 0.56
ATATACACGTGGCGTA | -0.02
GTAAACACGTGGGATG | -0.23
GGTATCACGTGTTAAG | 0.21
GTTAGCACGTGGTGGC | -0.09
AGCTGCACGTGTGGAT | 0.08
GGTGGCACGTGATGAT | 0
ACGGTCACGTGAGTTG | 0.37
GTCGGCACGTGGTAAT | -0.06
CTGGACACGTGAGGTG | 0.26
TATTACACGTGATGAT | 0.22
TTATACACGTGCTTTT | -0.02
TGTTTCACGTGGGTAC | 0.06
TAGCTCACGTGGGTGT | -0.06
TCTTACACGTGGTGGA | 0.19
TTTGTCACGTGGGTCG | -0.01
GGTTACACGTGGAGTG | 0.28
CATCACACGTGGTTTG | 0.2
GGGATCACGTGATAGA | 0.47
TTGTGCACGTGCGAAT | -0.03

Sequence | relative binding free energy [kcal/mol]
TGTGGCACGTGACTAA | -0.02
CTTTGCACGTGGCGGT | -0.19
TGGGACACGTGGACGT | -0.04
GAGAACACGTGAAGGT | 0.37
TAGTTCACGTGAGGAT | 0.37
TAGCGCACGTGTTATG | 0.01
TCTGTCACGTGTGTTT | 0.26
TAGAACACGTGAAGTT | 0.28
CGATCCACGTGTTGGG | 0.16
ACTGTCACGTGGTTGA | 0.09
CTTAACACGTGGTGTA | -0.24
TGTTACACGTGTGTCT | 0.19
TGTGTCACGTGCGGGG | 0.02
ATGTTCACGTGTTGCC | 0.33
AGTATCACGTGCTGAT | 0.2
TGTCACACGTGAGCTT | 0.42
GTGGACACGTGAGGTC | 0.42
TGGATCACGTGTATTG | 0.07
GTGATCACGTGTCGGG | 0.2
TTTGTCACGTGTGGAG | 0.08
GAGTTCACGTGGCTTG | 0.2
GGGTTCACGTGAAAGT | 0.55
ATGTACACGTGAGAGT | 0.46
GCGTACACGTGGAGGG | 0.09
CGTCGCACGTGTGTTT | -0.02
TAAAACACGTGGGGGA | -0.13

Sequence | relative binding free energy [kcal/mol]
TGTTACACGTGCGGCG | 0
TTGGTCACGTGGGACT | 0.04
TTTGGCACGTGTGCGC | -0.18
ATTTCCACGTGGTGAG | -0.04
AGTTGCACGTGTGCGC | -0.04
GTAGCCACGTGGTGGG | -0.12
ACTATCACGTGAAGTT | 0.49
ATATGCACGTGGTCGA | -0.08
CTGGACACGTGTGAGG | 0.09
TTTGTCACGTGTAACG | 0.36
TAGGCCACGTGGTATA | -0.11
TTGTGCACGTGACATG | 0.01
CGCGACACGTGGTAGG | -0.05
AGGAACACGTGGGGTG | -0.19
AGTTACACGTGTTGAA | 0.24
TAGTGCACGTGTTACG | 0
AGCGGCACGTGGTTAT | -0.14
ATAGTCACGTGAATAG | 0.48
AAGGGCACGTGAACGG | 0.05
AGAGTCACGTGTTAAT | 0.07
CTTTGCACGTGGGGAT | -0.21
AAGCGCACGTGGGTTG | -0.16
AGGAGCACGTGGTGAA | -0.19
ATTGTCACGTGTGATA | 0.13
ATGTTCACGTGATTGT | 0.35
ATTTGCACGTGATATT | 0.11

Sequence | relative binding free energy [kcal/mol]
TTGACCACGTGAGGTT | 0.15
CCGGACACGTGGGGGT | -0.2
TCTGTCACGTGGGATC | 0.06
AGTTTCACGTGTTAAG | 0.3
TAAAGCACGTGGGTGA | -0.29
AGCGACACGTGGGATT | 0.04
CTTGTCACGTGTGAGT | 0.13
GGCAGCACGTGTGGTT | 0.01
TCTTTCACGTGATAGA | 0.28
GGCGGCACGTGGAGGC | -0.18
CGGCGCACGTGCGTGG | -0.16
TGTAGCACGTGTGTAG | 0.03
GCGCGCACGTGGGGTA | -0.29
TGCTTCACGTGGTGCA | 0.12
CTGTTCACGTGTTGAT | 0.28
AAGTGCACGTGTGAGC | 0.1
GCTGTCACGTGACGGG | 0.29
GATGGCACGTGTCAGT | -0.06
TGAACCACGTGTTGGG | -0.06
TGTTTCACGTGTGCGT | 0.26
TTTTACACGTGTTCAA | 0.03
AGTGGCACGTGCGGAG | -0.13
TGGACCACGTGTGTAA | 0.07
GGATACACGTGGAGGG | 0.1
ATGGTCACGTGTCTTA | 0.12
TGTTTCACGTGAATTA | 0.26

Sequence | relative binding free energy [kcal/mol]
TGTAACACGTGGGCAT | -0.17
TAGTTCACGTGTAAAT | 0.31
CAGAGCACGTGGTTGG | -0.2
CGGTACACGTGAGGGC | 0.27
TAGGGCACGTGATTAA | -0.08
GGGGCCACGTGTAATT | 0.14
TGGTTCACGTGCGCGG | 0.12
AAGTTCACGTGCGGCG | 0.42
AGTTCCACGTGTGCTG | 0.06
TAGGTCACGTGAGGTA | 0.21
ATTAGCACGTGGGAAG | -0.03
GAGTACACGTGGACTG | 0.28
TGTTGCACGTGGACAA | 0.02
CGAGTCACGTGTTGTT | 0.12
AGATTCACGTGAGGAA | 0.46
CCGGGCACGTGTAGTG | -0.18
TTAAACACGTGGGGTA | -0.2
TCATTCACGTGGGCGT | 0.22
GAAGGCACGTGGTGGG | -0.09
GGATCCACGTGTGATG | 0.15
GTTTACACGTGATGCG | 0.19
AGATGCACGTGTGGGC | 0.06

— the BET-seq Pho4 binding data (Le et al. 2018)
